Results taken from PubChem BioAssay AID504832 (National Center for Advancing Translational Sciences (NCATS), 2011).
“And” between values parts separate entries of the source, which are not always exact repeats. Identical values can stand only once. In all, about 310,000 compounds went through this assay and about 18,000 (5.8%) were called active. Inconclusive means that the source gave no clear call. Such entries were picked first, then a sample of the others. Calls follow the shape of the dose curve; as a rule, active = well fitted inhibition curve with a large enough effect; inconclusive = small, poorly fitted or top-dose-only effect, or another doubt; inactive = no such curve, though single readings can be large or run the other way. Potencies beside an inconclusive call are fits to weak or partial responses and may not hold up.

Assay: Primary qHTS for delayed death inhibitors of the malarial parasite plastid, 48 hour incubation
Details: P. falciparum luciferase growth in erythrocytes; series mostly up to 28.7 µM
How it was run: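 Here the parasites carry a stable luciferase gene and grow inside erythrocytes in Albumax-based RPMI medium with compound for one erythrocytic cycle. Activity is scored as loss of luminescent signal.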
Potency is read from the fitted curve at half-maximal effect; tags tell the direction and shape of the fitted curve.

Row | Structure (SMILES) | Potency
1 | CC(C)[C@H](NC(=O)C1CC(=O)N(c2ccc3c(c2)OCCO3)C1)C(=O)NC1CCCC1 (some centres undefined) | inactive
2 | COc1ccc(OCCN2C(=O)NC(C)(c3ccc(C)cc3)C2=O)cc1 (centres undefined) | inconclusive: 9.28 µM [inhibitor, single point]
3 | CC(=O)c1ccc(OCCCC(=O)NC2CCCc3ccccc32)cc1 (centres undefined) | inactive
4 | CCC(C)(C)C1CCC2(CC1)NC(=O)N(CC(=O)NCCCc1ccccc1)C2=O (centres undefined) | inconclusive: 10.4 µM [inhibitor, single point]
5 | Cc1cc(NC(=O)CN2CCN(c3ccc(O)cc3)CC2)no1 | inconclusive: 11.7 µM [inhibitor, partial curve, poor fit]
6 | COc1ccc(OC)c(/C=C/C(=O)OCC(=O)Nc2nnc(-c3ccccc3)o2)c1 | inconclusive: 10.4 µM [inhibitor, single point]
7 | COc1cccc(OC)c1CN1CCCC(C(=O)c2ccccc2SC)C1 (centres undefined) | inconclusive: 13.1 µM [inhibitor, single point]
8 | COCCn1c(SC(C)C(=O)Nc2ccc3c(c2)OCCO3)nc2ccccc2c1=O (centres undefined) | inconclusive: 10.4 µM [inhibitor, partial curve]
9 | CCCCCCC(C)OC(=O)Nc1cccc2ccccc12 (centres undefined) | inactive
10 | Clc1ccc(-c2nnc(C3CC3)o2)cc1 | inactive
11 | CCCCCCCCN1C(=O)N(C)C(N(O)C(=O)NC)C1(C)C (centres undefined) | inconclusive: 18.5 µM [inhibitor, single point]
12 | O=C(CNC(=O)c1ccccc1)NCCc1ccc(O)c(O)c1 | inconclusive: 0.415 µM [inhibitor, full curve, poor fit]
13 | Cc1nn2c3c(cnc2c1-c1ccc(Cl)cc1)C(=O)CC(c1ccco1)C3 (centres undefined) | inconclusive: 1.65 µM [inhibitor, full curve]
14 | CC(C)OC(=O)c1nnn(-c2nonc2N)c1CN1CCCCCC1 | inconclusive: 13.1 µM [inhibitor, single point]
15 | O=C(COc1ccccc1Cl)NNC(=O)Cn1[nH]c(=O)c2ccccc2c1=O | inconclusive: 10.4 µM [inhibitor, partial curve, poor fit]
16 | Cc1nc2ccccc2n1Cc1ccc(Cl)cc1 | inconclusive: 15.1 µM [inhibitor, single point] and inconclusive: 18.5 µM [inhibitor, single point]
17 | COc1ccc(CN=Cc2[nH]c3ccc(Br)c(Cl)c3c2O)cc1 | active: 3.7 µM
18 | O=c1[nH]c(C2CCN(S(=O)(=O)c3ccccc3C(F)(F)F)CC2)nc2c1nnn2Cc1cccc(F)c1 | active: 2.62 µM
19 | N#CC(c1cccc(C(F)(F)F)c1)(c1ncc(C(F)(F)F)cc1Cl)N1CCOCC1 (centres undefined) | inconclusive: 1.85 µM [inhibitor, partial curve, poor fit]
